One test concerns the target T1, human CD122 (IL-2Rβ) (human, UniProt P14784 27-240).
T1 construct: Receptor reagent used in SPR; also called interleukin 2 receptor beta
T1 sequence (looked up): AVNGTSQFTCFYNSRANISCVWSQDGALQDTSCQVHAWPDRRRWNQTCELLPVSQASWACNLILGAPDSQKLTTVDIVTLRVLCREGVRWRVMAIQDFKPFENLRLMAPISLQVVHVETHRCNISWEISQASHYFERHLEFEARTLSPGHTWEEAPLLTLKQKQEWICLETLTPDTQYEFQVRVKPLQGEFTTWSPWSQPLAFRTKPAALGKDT
Briefly: SPR; 1:1 binding fit.

The next test concerns the target T2, human CD25 (IL-2Rα) (human, UniProt P01589 22-240, limits assumed).
T2 construct: Receptor reagent used in SPR; also called interleukin 2 receptor alpha
T2 sequence (looked up): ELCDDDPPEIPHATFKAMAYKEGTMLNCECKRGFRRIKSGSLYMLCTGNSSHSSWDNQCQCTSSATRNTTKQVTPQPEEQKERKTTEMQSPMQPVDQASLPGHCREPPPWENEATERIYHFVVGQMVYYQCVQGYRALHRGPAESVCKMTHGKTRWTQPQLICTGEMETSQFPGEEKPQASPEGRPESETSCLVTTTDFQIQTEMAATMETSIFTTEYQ
In words: SPR; steady state affinity.

B1: MDNA209-Fc-KFR (2:1:2) (Fc fusion)
chain: APTSSSTKKTQLQLEHLRLDLEMILNGINNYKNPKLTRMLTFKFYMPKKATELKHLQCLEEELKPLEEVLNLAQSKNFHFDPRDVVSNINVFVLELKGSETTFMCEYADETATIVEFLNRWITFCTSIIRTLTGGGGSGGGGSGGGGS[omitted - human IgG1 Fc with changes]GGGSGGGGSGGGGSHKCDITLQEIIKTLNSLTEQKTLCTELTVTDIFAASKNTTEKETFCRAATVLRQFYSHHEKDTRCLGATAQQFHRHKQLIRFLKRLDRNLWGLAGLNSCPVKEANQSTLENFLERLKTIMKEKFRKCSS
notes: MDNA209, Fc and IL-4 mutein KFR (R121K, Y124F, S125R) in one chain; Made in CHO
Turning to B1, the Kd with human CD122 (IL-2Rβ) is 5.02 nM; with human CD25 (IL-2Rα), 32.2 nM.

B2: MDNA209-Fc-RGA (2:1:2) (Fc fusion)
chain: APTSSSTKKTQLQLEHLRLDLEMILNGINNYKNPKLTRMLTFKFYMPKKATELKHLQCLEEELKPLEEVLNLAQSKNFHFDPRDVVSNINVFVLELKGSETTFMCEYADETATIVEFLNRWITFCTSIIRTLTGGGGSGGGGSGGGGS[omitted - human IgG1 Fc with changes]GGGSGGGGSGGGGSHKCDITLQEIIKTLNSLTEQKTLCTELTVTDIFAASKNTTEKETFCRAATVLRQFYSHHEKDTRCLGATAQQFHRHKQLIRFLKRLDRNLWGLAGLNSCPVKEANQSTLENFLERLRVIMQSKWFKCGA
notes: MDNA209, Fc and IL-4 mutein RGA (K117R, T118V, R121Q, E122S, Y124W, S125F, S128G, S129A) in one chain; Made in CHO
Consider B2, for which the results for the dissociation constant (Kd) with human CD122 (IL-2Rβ) and in the test with human CD25 (IL-2Rα) were 6.03 nM and 40.3 nM, respectively.
